In paper PMC4336329 (PLoS ONE, 2015):
In all, about 310,000 compounds went through this assay and about 14,000 (4.5%) showed an effect of 50% or more. The effect is printed as a negative number. Some of the results follow. Where a SMILES comes first, the peptide text is derived from it. The star is where a group is joined. Cbz = O=C(OCc1ccccc1)*

Each compound was assayed against human ether-à-go-go-related gene (hERG) potassium channel (human, UniProt Q12809) (assay: primary screen, population patch clamp on CHO cells stably expressing hERG).
Sequence of human ether-à-go-go-related gene (hERG) potassium channel (Q12809 whole entry, looked up): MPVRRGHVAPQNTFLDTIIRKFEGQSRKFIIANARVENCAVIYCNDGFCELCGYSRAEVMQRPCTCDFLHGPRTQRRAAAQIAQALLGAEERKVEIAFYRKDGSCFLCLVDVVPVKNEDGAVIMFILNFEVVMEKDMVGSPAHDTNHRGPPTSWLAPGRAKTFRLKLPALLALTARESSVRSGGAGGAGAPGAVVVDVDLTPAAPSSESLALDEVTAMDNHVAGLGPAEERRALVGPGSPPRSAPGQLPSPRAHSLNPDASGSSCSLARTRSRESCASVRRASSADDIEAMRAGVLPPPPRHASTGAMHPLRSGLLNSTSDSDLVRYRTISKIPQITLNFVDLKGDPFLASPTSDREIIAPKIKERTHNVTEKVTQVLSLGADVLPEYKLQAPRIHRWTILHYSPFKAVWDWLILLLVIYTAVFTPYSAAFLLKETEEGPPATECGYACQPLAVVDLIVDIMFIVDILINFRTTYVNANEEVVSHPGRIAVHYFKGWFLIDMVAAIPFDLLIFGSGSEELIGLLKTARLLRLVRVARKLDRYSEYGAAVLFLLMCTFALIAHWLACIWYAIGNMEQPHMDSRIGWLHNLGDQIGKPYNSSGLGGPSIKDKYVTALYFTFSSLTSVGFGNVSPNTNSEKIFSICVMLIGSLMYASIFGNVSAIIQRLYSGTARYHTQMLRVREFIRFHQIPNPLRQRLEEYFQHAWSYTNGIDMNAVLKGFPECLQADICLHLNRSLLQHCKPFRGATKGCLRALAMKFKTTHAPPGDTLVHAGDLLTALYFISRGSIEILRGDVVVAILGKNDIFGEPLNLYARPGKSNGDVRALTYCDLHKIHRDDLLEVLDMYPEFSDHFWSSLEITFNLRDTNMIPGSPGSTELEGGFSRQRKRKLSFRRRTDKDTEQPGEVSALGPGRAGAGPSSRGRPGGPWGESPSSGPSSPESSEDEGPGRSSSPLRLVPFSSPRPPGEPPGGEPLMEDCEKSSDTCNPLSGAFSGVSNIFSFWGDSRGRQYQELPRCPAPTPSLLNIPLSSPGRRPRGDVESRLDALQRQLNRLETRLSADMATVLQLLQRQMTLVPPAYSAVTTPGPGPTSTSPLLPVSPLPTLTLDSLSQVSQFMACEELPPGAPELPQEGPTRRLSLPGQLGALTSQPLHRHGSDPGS
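Also: peak tail current of the secondary pulse compared with the same well before compound.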

Row | Structure (SMILES) | hERG current change (%, negative = inhibition) at 10uM [%]
1 | Cn1cnc2cc(NCc3cccs3)ccc21 | -0.349
2 | COc1ccc(C(=O)N2CCCC(C(=O)N3CCCCCC3)C2)cc1 (stereo not shown) | 4.8
3 | O=C(O)CCC(NC(=O)C1CCCN1C(=O)OCc1ccccc1)C(=O)O (stereo not drawn) (Cbz-Pro-Glu-OH; configuration not given here) | 14
4 | O=C(O)c1ccc(-c2ccc(O)c(F)c2)cc1 | 4.41
5 | CCn1c(-c2cc(-c3ccc(OC(C)C)cc3)nc3ccccc23)n[nH]c1=S | 2.71
6 | Cc1nn(C)c(Cl)c1C(=O)NCC(=O)NCc1ccccc1 | 5.32
7 | Cc1noc(C)c1COc1cccc(C(=O)OC(C)C(=O)Nc2c(C)n(C)n(-c3ccccc3)c2=O)c1 (stereo not shown) | 4.8
8 | Cc1ccccc1OCCNC(=O)CNC(=O)c1ccccc1O | -32.8
9 | O=C(Nc1nc(-c2ccccc2)nc2ccccc12)c1ccc(F)cc1 | 15.3
10 | C=CCNC(=O)c1onc(CSc2ccc(F)cc2)c1C(=O)NCCOC | -43
11 | Cc1[nH]c2ccccc2c1/C=N/NC(=O)c1cc(-c2ccncc2)nc2ccccc12 | 6.7
12 | CC1CN(C(=O)c2ccc(COc3ccc(C(C)C)cc3)o2)CC(C)O1 (stereo not shown) | -25
13 | COc1cccc(NC(=O)Nc2ccc3nc(C)c(C)nc3c2)c1 | -0.741
14 | CC(C)(C)OC(=O)NCC1CCC(C(=O)NC[C@H](CC(=O)O)c2ccc(Cl)cc2)CC1 (stereo partly shown) | 21.1
15 | Cc1onc(-c2c(F)cccc2Cl)c1C(=O)N=C(N)N1CC(C)OC(C)C1 (stereo not shown) | 2
16 | COc1ccc(CC(=O)NCC2CCCN(Cc3ccccc3OC)C2)cc1 (stereo not shown) | 10.5
17 | COc1ccc([C@H](C)NC[C@H](O)c2ccc(O)c(NC=O)c2)cc1.O=C(O)/C=C/C(=O)O | -0.554
18 | CCN1C(=O)[C@@H]2[C@@H](c3ccc(SC4CCCCC4)cc3)N3CCCC[C@@]3(C(=O)OC)[C@@H]2C1=O.O=C(O)C(F)(F)F | 0.86
19 | COc1ccc(C(=O)OCC(=O)NC2CC2)cc1S(=O)(=O)Nc1ccc(C)cc1 | 7.75
20 | CN(C)S(=O)(=O)c1ccc(NC(=O)N2CCN(c3ccccc3)CC2)cc1 | 13.3
21 | Cn1c(N)c(C(=O)COC(=O)C2(c3cccc(F)c3)CCCC2)c(=O)n(C)c1=O | -12.4
22 | Brc1ccc(Nc2nc(-c3cccnc3)cs2)cc1 | 19.9

Row | Structure (SMILES) | hERG current change (%, negative = inhibition) at 10uM [%]
23 | CSc1ccc(N2CCN(CCCNC(=O)Nc3ccccc3F)CC2)cc1 | -49.1
24 | Cc1ccc(NC(=O)c2cc(N3C(=O)CCC3=O)ccc2N2CCCCC2)cc1 | -15.9
25 | Cc1c(C=O)c2ccccc2n1Cc1ccc([N+](=O)[O-])cc1 | -78.1
26 | COc1cc2oc(=O)ccc2cc1[C@H](O)[C@@H](O)C(C)(C)O | 10.1
27 | Cl.O=c1cn[nH]c2ccccc12 | -5.98
28 | C=CCOc1ccccc1/C=N/n1nnnc1N | -4.6
29 | Cn1nc(C(F)(F)F)c(CN2CC(C)(C)C2=O)c1N1CCOCC1 | 20.7
30 | CCOc1ccc(CNc2ccc(N3CCOCC3)c(C(=O)O)c2)cc1 | -0.488
31 | O=C(NCc1cccs1)C(=O)NCC1OCCCN1S(=O)(=O)c1cccs1 (stereo not shown) | -15.3
32 | CC(C)C(=O)c1cn(CC(=O)NCc2ccc3c(c2)OCO3)c2ccccc12 | 16
33 | CCc1ccccc1NC(=O)CNC1CCCCC1.[O-][Cl+3]([O-])([O-])O | 8.4
34 | CC(COC(=O)c1ccccc1)(COC(=O)c1ccccc1)/[N+]([O-])=C/c1ccccc1 | 4.41
35 | CCOC(=O)c1cnn(-c2ccc(Cl)cc2)c1C1CCN(C(=O)OC(C)(C)C)CC1 | -1.14
36 | O=C1C2CCCN2C(=O)N1CCCCN1CCN(c2ccc(F)cc2)CC1 (stereo not shown) | -43.2
37 | O=C(C1CCCCC1)N1CCN(S(=O)(=O)c2cccc([N+](=O)[O-])c2)CC1 | -13.1
38 | Nc1ccc(C(=O)N2CCN(S(=O)(=O)c3ccc(Cl)cc3)CC2)cc1[N+](=O)[O-] | -46.1
39 | CC(C)c1nc2sc3c(NCc4ccco4)ncnc3c2c2c1COC(C)(C)C2 | -1.04
40 | Clc1ccccc1-c1nc(-c2cccnc2)no1 | 7.94
41 | Fc1ccc(NC(=S)N2CCc3ccccc32)cc1 | 10.6
42 | CCCc1nnc(SCC(=O)Nc2cc(C)on2)n1CCOC | 16.2
43 | O=C1C2=C(c3ccccc31)[N+](=O)C1CCCCC1N2[O-] (stereo not shown) | -23.8
